The text below walks through data of the supplement of paper PMC10037445.

± gives the standard deviation of the averaged measurements. The full ranking holds about 2,900 compounds; the median of “IRF Lucia reporter activity, fold change vs agonist alone” is about 0.9, and the highest 2% start at about 2.8. Some of the results follow.

Assay [1] relates to RAW-Dual. In words: IRF Lucia reporter activity, fold change vs agonist alone; cytotoxicity flag (confluency mask): not cytotoxic; higher = enhanced IRF activity. Summed up:
(§1)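 Library stock was pin-tooled at 50 nL into 384-well plates of RAW-Dual macrophages (50,000 cells/well, DMEM), followed 1 h later by a PRR agonist, and the cells were kept at 37 °C, 5% CO2. Supernatant collected after 20 hours was read for IRF by QuantiLuc luminescence and for NF-κB by QuantiBlue absorbance at 620 nm. Reporter activity is fold change over agonist-alone wells, and a well counted as cytotoxic when its IncuCyte confluency was below 70% of agonist controls in both mask sets.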

The subject of assay [2] is RAW-Dual. In words: IRF Lucia reporter activity, fold change vs agonist alone; higher = enhanced IRF activity. The following applies: agonist: MPLA (TLR4) […]. A digest of the protocol: as §1
Assay [3] deals with RAW-Dual. The assay can be described thus: IRF Lucia reporter activity, fold change vs agonist alone; cytotoxicity flag (confluency mask): cytotoxic (confluency <70% of control); higher = enhanced IRF activity. Summed up:
as §1

The mark [4] stands for this setting: agonist: 3'3'-cGAMP (STING) 10 ug/mL.
The mark [5] stands for this setting: library stock concentration (final ~1000-fold dilution): 10 mM, cytotoxicity flag (confluency mask): not cytotoxic.

Consider `NC1C(O)OC(CO)C(O)C1O` (configuration not stated) (library stock concentration (final ~1000-fold dilution): 10 mM), for which the “IRF Lucia reporter activity” value in the assay with RAW-Dual [1] (setting [4]) stood at 0.143; in the assay on RAW-Dual [1] (agonist: LPS (TLR4) 0.1 ug/mL) it was 0.267.

Regarding `CC(C)c1cc(-c2ccc(F)c3ccccc23)nc(N)n1`, the “IRF Lucia reporter activity” value in the assay with RAW-Dual [2] (setting [5]) is 0.967.

For the compound `CC(C)c1cc(-c2ccc(F)c3ccccc23)nc(N)n1` (library stock concentration (final ~1000-fold dilution): 10 mM), the “IRF Lucia reporter activity” value in the assay with RAW-Dual [1] (setting [4]) stood at 1.11; in the assay with RAW-Dual [1] (agonist: LPS (TLR4) 0.1 ug/mL), 0.742.

With `Cc1cc(C)c(/C=C2\C(=O)Nc3ccccc32)[nH]1` (library stock concentration (final ~1000-fold dilution): 10 mM), the figures for the “IRF Lucia reporter activity” value with RAW-Dual [1] (setting [4]) and in the assay on RAW-Dual [1] (agonist: LPS (TLR4) 0.1 ug/mL) were 0.77 and 0.578, respectively.

Turning to `Cc1cc(C)c(/C=C2\C(=O)Nc3ccccc32)[nH]1`, the “IRF Lucia reporter activity” value with RAW-Dual [2] (setting [5]) worked out at 0.781.

For the compound `CN1CCC(=C2c3ccccc3CC(=O)c3sccc32)CC1.O=C(O)/C=C/C(=O)O`, the “IRF Lucia reporter activity” value in the assay with RAW-Dual [2] (setting [5]) worked out at 0.92.

As to `CN1CCC(=C2c3ccccc3CC(=O)c3sccc32)CC1.O=C(O)/C=C/C(=O)O` (library stock concentration (final ~1000-fold dilution): 10 mM), the “IRF Lucia reporter activity” value stood at 0.948 with RAW-Dual [1] (setting [4]) and 0.954 with RAW-Dual [1] (agonist: LPS (TLR4) 0.1 ug/mL).

With `O=c1cc(O)c(Cl)c[nH]1` (library stock concentration (final ~1000-fold dilution): 10 mM), the “IRF Lucia reporter activity” value in the assay with RAW-Dual [1] (setting [4]) turned out to be 1.06; in the assay with RAW-Dual [1] (agonist: LPS (TLR4) 0.1 ug/mL) it was 0.923.

For `O=c1cc(O)c(Cl)c[nH]1`, the “IRF Lucia reporter activity” value in the assay on RAW-Dual [2] (setting [5]) is 0.918.

As to `CC(C)=CCC/C(C)=C/CC/C(C)=C/CC/C(C)=C/CC/C(C)=C/CC/C(C)=C/CC/C(C)=C/CC/C(C)=C/CC/C(C)=C/CO`, in the assay on RAW-Dual [2] (setting [5]), the “IRF Lucia reporter activity” value is 1.08.

Turning to `CC(C)=CCC/C(C)=C/CC/C(C)=C/CC/C(C)=C/CC/C(C)=C/CC/C(C)=C/CC/C(C)=C/CC/C(C)=C/CC/C(C)=C/CO` (library stock concentration (final ~1000-fold dilution): 10 mM), the “IRF Lucia reporter activity” value with RAW-Dual [1] (setting [4]) amounted to 0.98; in the assay with RAW-Dual [1] (agonist: LPS (TLR4) 0.1 ug/mL), 1.21.

`COCCOC(=O)C1=C(C)NC(C)=C(C(=O)OC/C=C/c2ccccc2)C1c1cccc([N+](=O)[O-])c1` (configuration not stated): in the assay with RAW-Dual [2] (setting [5]), the “IRF Lucia reporter activity” value was found to be 0.819.

Turning to `COCCOC(=O)C1=C(C)NC(C)=C(C(=O)OC/C=C/c2ccccc2)C1c1cccc([N+](=O)[O-])c1` (configuration not stated) (library stock concentration (final ~1000-fold dilution): 10 mM), the “IRF Lucia reporter activity” value with RAW-Dual [1] (setting [4]) came to 0.278; in the assay with RAW-Dual [1] (agonist: LPS (TLR4) 0.1 ug/mL) it was 1.06.

For `COc1cc(O)c(C(=O)Nc2nc(C(=O)NCCN(C(C)C)C(C)C)cs2)cc1OC`, in the assay with RAW-Dual [2] (setting [5]), the “IRF Lucia reporter activity” value came to 0.958.

With `COc1cc(O)c(C(=O)Nc2nc(C(=O)NCCN(C(C)C)C(C)C)cs2)cc1OC` (library stock concentration (final ~1000-fold dilution): 10 mM), the “IRF Lucia reporter activity” value worked out at 1 in the assay on RAW-Dual [1] (setting [4]) and 1.22 with RAW-Dual [1] (agonist: LPS (TLR4) 0.1 ug/mL).

In the case of `Cc1cc(C)cc(C(=O)NOCCCCCC(=O)NO)c1`, the “IRF Lucia reporter activity” value in the assay with RAW-Dual [2] (library stock concentration (final ~1000-fold dilution): 10 mM, cytotoxicity flag (confluency mask): cytotoxic (confluency <70% of control)) was 0.354.

Consider `Cc1cc(C)cc(C(=O)NOCCCCCC(=O)NO)c1` (library stock concentration (final ~1000-fold dilution): 10 mM), for which the “IRF Lucia reporter activity” value is 0.0291 with RAW-Dual [3] (setting [4]) and 0.394 with RAW-Dual [3] (agonist: LPS (TLR4) 0.1 ug/mL).

For `CC(NC(=O)c1ccccc1N=Cc1c(O)ccc2ccccc12)c1ccccc1` (configuration not stated) (library stock concentration (final ~1000-fold dilution): 10 mM), the “IRF Lucia reporter activity” value with RAW-Dual [1] (setting [4]) stood at 0.692; in the assay on RAW-Dual [1] (agonist: LPS (TLR4) 0.1 ug/mL), 1.45.

For `CC(NC(=O)c1ccccc1N=Cc1c(O)ccc2ccccc12)c1ccccc1` (configuration not stated), the “IRF Lucia reporter activity” value with RAW-Dual [2] (setting [5]) is 1.28.

With `CC1=CC2(O)OC3(CC2=C(C)C)C(C)CCC13` (configuration not stated) (library stock concentration (final ~1000-fold dilution): 10 mM), the “IRF Lucia reporter activity” value in the assay with RAW-Dual [1] (setting [4]) stood at 1.04 ± 0.089; in the assay with RAW-Dual [1] (agonist: LPS (TLR4) 0.1 ug/mL), 1.1 ± 0.061.

`CC1=CC2(O)OC3(CC2=C(C)C)C(C)CCC13` (configuration not stated): the “IRF Lucia reporter activity” value in the assay on RAW-Dual [2] (setting [5]) was 1.15 ± 0.02.

In the case of `CNC(=O)c1cc(COc2nnc(Nc3ccc(Cl)cc3)c3ccoc23)ccn1` (library stock concentration (final ~1000-fold dilution): 10 mM), the “IRF Lucia reporter activity” value was found to be 0.892 in the assay with RAW-Dual [1] (setting [4]) and 0.529 in the assay with RAW-Dual [1] (agonist: LPS (TLR4) 0.1 ug/mL).

Turning to `CNC(=O)c1cc(COc2nnc(Nc3ccc(Cl)cc3)c3ccoc23)ccn1`, the “IRF Lucia reporter activity” value in the assay with RAW-Dual [2] (setting [5]) was determined as 0.948.

On to `CCC1=C(C)CN(C(=O)NCCc2ccc(S(=O)(=O)NC(=O)NC3CCC(C)CC3)cc2)C1=O` (configuration not stated), for which the “IRF Lucia reporter activity” value in the assay with RAW-Dual [2] (setting [5]) is 1.16.

With `CCC1=C(C)CN(C(=O)NCCc2ccc(S(=O)(=O)NC(=O)NC3CCC(C)CC3)cc2)C1=O` (configuration not stated) (library stock concentration (final ~1000-fold dilution): 10 mM), the “IRF Lucia reporter activity” value was 1.11 in the assay with RAW-Dual [1] (setting [4]) and 1.09 in the assay with RAW-Dual [1] (agonist: LPS (TLR4) 0.1 ug/mL).

With `CC(NC(=O)CCC(F)(F)F)C(=O)NC1C(=O)N(CCO)c2ncccc2-c2ccccc21` (configuration not stated) (library stock concentration (final ~1000-fold dilution): 10 mM), the “IRF Lucia reporter activity” value in the assay on RAW-Dual [1] (setting [4]) worked out at 1.1; in the assay on RAW-Dual [1] (agonist: LPS (TLR4) 0.1 ug/mL), 1.02.

As for `CC(NC(=O)CCC(F)(F)F)C(=O)NC1C(=O)N(CCO)c2ncccc2-c2ccccc21` (configuration not stated), the “IRF Lucia reporter activity” value with RAW-Dual [2] (setting [5]) came to 1.22.

Regarding `O=C(O)/C=C/c1ccc(Cn2ccnc2)cc1` (library stock concentration (final ~1000-fold dilution): 10 mM), the “IRF Lucia reporter activity” value was 0.988 with RAW-Dual [1] (setting [4]) and 0.998 in the assay with RAW-Dual [1] (agonist: LPS (TLR4) 0.1 ug/mL).

Regarding `O=C(O)/C=C/c1ccc(Cn2ccnc2)cc1`, the “IRF Lucia reporter activity” value in the assay on RAW-Dual [2] (setting [5]) was 1.05.

On to `COc1cc2nccc(Oc3ccc(NC(=O)C4(C(=O)Nc5ccc(F)cc5)CC4)cc3)c2cc1OC`, for which the “IRF Lucia reporter activity” value with RAW-Dual [2] (setting [5]) came to 0.292.

As for `COc1cc2nccc(Oc3ccc(NC(=O)C4(C(=O)Nc5ccc(F)cc5)CC4)cc3)c2cc1OC` (library stock concentration (final ~1000-fold dilution): 10 mM), the “IRF Lucia reporter activity” value in the assay on RAW-Dual [1] (setting [4]) was determined as 0.0574; with RAW-Dual [1] (agonist: LPS (TLR4) 0.1 ug/mL), 0.236.

For `Cl.Nc1ncccc1-c1nc2ccc(-c3ccccc3)nc2n1-c1ccc(C2(N)CCC2)cc1` (library stock concentration (final ~1000-fold dilution): 10 mM), the “IRF Lucia reporter activity” value turned out to be 0.228 with RAW-Dual [3] (setting [4]) and 1.21 with RAW-Dual [3] (agonist: LPS (TLR4) 0.1 ug/mL).

`O=C(O)CCN1C(=O)C(=Cc2ccc(-c3ccc([N+](=O)[O-])cc3)o2)SC1=S` (library stock concentration (final ~1000-fold dilution): 10 mM): the “IRF Lucia reporter activity” value is 0.0623 with RAW-Dual [1] (setting [4]) and 0.665 in the assay with RAW-Dual [1] (agonist: LPS (TLR4) 0.1 ug/mL).

With `CCc1cc2c(cc1N1CCC(N3CCOCC3)CC1)C(C)(C)c1[nH]c3cc(C#N)ccc3c1C2=O.Cl`, the “IRF Lucia reporter activity” value in the assay on RAW-Dual [2] (library stock concentration (final ~1000-fold dilution): 2 mM, cytotoxicity flag (confluency mask): not cytotoxic) was 1.33.

As to `CCc1cc2c(cc1N1CCC(N3CCOCC3)CC1)C(C)(C)c1[nH]c3cc(C#N)ccc3c1C2=O.Cl` (library stock concentration (final ~1000-fold dilution): 2 mM), the “IRF Lucia reporter activity” value in the assay on RAW-Dual [1] (setting [4]) is 0.387; in the assay on RAW-Dual [1] (agonist: LPS (TLR4) 0.1 ug/mL), 1.73.

Consider `CC(C)(C)c1[nH]cnc1C=c1[nH]c(=O)c(=Cc2ccccc2)[nH]c1=O` (library stock concentration (final ~1000-fold dilution): 10 mM), for which the “IRF Lucia reporter activity” value in the assay on RAW-Dual [1] (setting [4]) was 0.101; with RAW-Dual [1] (agonist: LPS (TLR4) 0.1 ug/mL), 1.76.

For `CC(C)(C)c1[nH]cnc1C=c1[nH]c(=O)c(=Cc2ccccc2)[nH]c1=O`, the “IRF Lucia reporter activity” value with RAW-Dual [2] (setting [5]) came out at 1.69.
